Test results published in PubChem BioAssay AID624202 (National Center for Advancing Translational Sciences (NCATS), 2012).
Several values for one entry are separate records, joined by “and”; a condition that tells them apart may be missing. Identical values can stand only once. The campaign covered roughly 380,000 compounds. About 4,000 (1.1%) were called active. The inconclusive results got no clear call from the source; some entries with a clear call stand among them for comparison. Calls come from the whole dose curve; as a rule, active = well fitted activation curve with a large enough effect; inconclusive = small, poorly fitted or top-dose-only effect; inactive = no such curve, though single readings can be large or run the other way. Potencies beside an inconclusive call are fits to weak or partial responses and may not hold up.

Experiment: qHTS Assay to Identify Small Molecule Activators of BRCA1 Expression; note: nearly all actives have a fitted effect of over 80% in size
Conditions: MCF7-BRCA1-FFLuc reporter, luminescence, 48 h; activation: at 46.1 µM (top of the series), scaled: vehicle 0%, 10 µM genistein 100% unless noted
How it was run: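 Reporter cells (MCF7, BRCA1 promoter-firefly luciferase) received library compounds across a concentration series for 48 h. End-point luminescence was measured and concentration-effect curves derived after normalization.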
Potency is the fitted concentration of half-maximal effect; tags give direction and shape of the fitted curve.

Row | SMILES | Potency | activation
1 | Cc1cc(-c2ccccc2)nc(N2CCC(C(=O)NC(C)C)CC2)n1 | active: 2 µM | –
2 | COc1ccc(NC(=O)c2cccs2)cc1O | inconclusive: 15.8 µM [activator, single point] | –
3 | O=C(NC1CCCCC1)N1CCC(n2c(=O)[nH]c3ccccc32)CC1 | – | inactive: -2.22%
4 | S=C(Nc1ccc2[nH]ccc2c1)NC1CCCCC1 | inconclusive: 12.6 µM [activator, partial curve, poor fit] | –
5 | COc1ccc(OC)c(Cc2nnc(CCC(=O)N3CCCCC3c3nccs3)o2)c1 (stereo not given) | inconclusive: 31.6 µM [activator, single point] | –
6 | Clc1ccc(-c2cnc(Oc3ccccc3)nc2)cc1 | inconclusive: 1.58 µM [activator, full curve, poor fit] | –
7 | O=C(Nc1ccccc1)NC1CCCCC1 | inconclusive: 15.8 µM [activator, single point] | –
8 | COc1ccc(/C=N/Nc2ccc([N+](=O)[O-])cc2)cc1O | active: 8.91 µM | –
9 | Cc1sc(=NC(=O)c2ccco2)n(C)c1-c1ccc(Cl)cc1 | active: 6.31 µM | –
10 | CCOC(=O)c1c(C)[nH]c(C(=O)COC(=O)C2CC2)c1C | inconclusive: 31.6 µM [activator, single point] | –
11 | O=C(N/N=C/c1cccc2ccccc12)c1cccnc1 | inconclusive: 31.6 µM [activator, single point] | –
12 | O=C(O)CN1C(=O)/C(=C/c2ccc(N3CCCCC3)o2)SC1=S | – | inactive: -17.7%
13 | Cc1c(N=C2SCC(=O)N2/N=C\c2ccc(Br)cc2)c(=O)n(-c2ccccc2)n1C | – | inactive: -7.94%
14 | CCN(Cc1ccccc1)C(=O)CCc1nnc(CCCc2ccccc2)o1 | active: 11.2 µM | –
15 | COc1cc(Cl)ccc1OCc1cc(C(=O)N2C[C@@H]3CCC[C@H]2C3)no1 | inconclusive: 5.62 µM [activator, full curve, poor fit] | –
16 | CCCCNC(=O)Nc1ccnn1C1CCCCC1 | – | inactive: -13.7%
17 | CS(=O)(=O)N1CCN(c2ccc(NC(=O)c3ccccc3)cc2)CC1 | inconclusive: 3.16 µM [activator, partial curve, poor fit] | –
18 | Clc1ccc(-c2nnc(NC3=NCCCCC3)o2)cc1 | – | inconclusive: -78.9% [activator]
19 | Cc1ccc(NCc2nc3ccccc3n2CCOc2ccccc2)cc1 | inconclusive: 3.98 µM [activator, partial curve, poor fit] | –
20 | N#Cc1c(-c2ccc(Cl)cc2)ccnc1N1CCOCC1 | inconclusive: 35.5 µM [activator, single point] | –
21 | Cc1cc(/C=C2\C=Cc3ccccc32)cc(C)c1[N+](=O)[O-] | – | inactive: -43.8%
22 | CC(=O)Nc1ccc(SCCCC(=O)c2ccccc2)cc1 | inconclusive: 25.1 µM [activator, single point] | –
23 | O=C(c1ccc(OCCN2CCCCC2)cc1)c1c(-c2ccc(O)cc2)sc2cc(O)ccc12 | – | inconclusive: -71.2% [activator] and inconclusive: -66.8% [activator]
24 | CCCCNC(=S)Nc1ccc(-c2nc3ccc(C)cc3s2)cc1 | inconclusive: 1 µM [activator, full curve, poor fit] | –
25 | CN(C(=O)CSc1nc2ccccc2o1)C1CCCCC1 | inconclusive: 1.58 µM [activator, full curve, poor fit] | –

Row | SMILES | Potency | activation
26 | CN(C)/N=C/c1ccc(N2CCOCC2)cc1 | inconclusive: 14.1 µM [activator, partial curve, poor fit] | –
27 | Cc1cccc2sc(NC(=O)C3CCCO3)nc12 (stereo not given) | inconclusive: 10 µM [activator, partial curve, poor fit] | –
28 | COc1cccc(-c2sc3ccc(OC)cc3c2C#CC(C)(C)O)c1 | – | inactive: -30.3%
29 | Cc1cccc(C(=O)OCC(=O)N2CCCCCC2)c1O | inconclusive: 17.8 µM [activator, partial curve, poor fit] | –
30 | COc1ccc2cc3cc(C(=O)N4CCCC(C)C4)oc3nc2c1 (stereo not given) | inconclusive: 1.26 µM [activator, full curve, poor fit] | –
31 | Fc1cc(Br)ccc1COc1ccc(-c2nnco2)cc1 | active: 6.31 µM | –
32 | CCOC(=O)c1cc(-c2ccc(OC)cc2)n[nH]1 | active: 11.2 µM | –
33 | CCc1ccc(-c2ccc(SCC(=O)NC3CCCC3)nn2)cc1 | inconclusive: 2.82 µM [activator, full curve, poor fit] | –
34 | O=C(CSc1nccn1-c1ccccc1)Nc1nc2ccccc2s1 | active: 11.2 µM | –
35 | COc1ccc(Cc2nc3ccc(C(=O)N(C)CC4COCCO4)cc3o2)cc1 (stereo not given) | inconclusive: 12.6 µM [activator, partial curve, poor fit] | –
36 | O=C(Nc1ccc2nc3ccccc3nc2c1)c1ccc(Br)cc1 | inconclusive: 35.5 µM [activator, partial curve, poor fit] | –
37 | COc1ccc(/C=N/Nc2nncn2N)cc1Br | – | inactive: -95.6%
38 | CCOC(=O)N1CCN(C(=O)CCCOc2ccccc2)CC1 | inconclusive: 1.58 µM [activator, partial curve, poor fit] | –
39 | COc1ccc(NC(=O)c2sccc2C)cn1 | active: 7.94 µM | –
40 | CN1CCC(=O)N(CCSc2ccccc2)CC1 | inconclusive: 12.6 µM [activator, partial curve, poor fit] | –
41 | O=C(Nc1cccc(F)c1)Nc1ccc2c(c1)C(=O)OC2 | inconclusive: 25.1 µM [activator, single point] | –
42 | CC(C)Cc1cc(C(=O)NCCc2ccccc2)no1 | active: 5.01 µM | –
43 | COc1cccc(NC(=O)c2ccc(NC(=O)C(C)(C)C)cc2)c1 | active: 3.98 µM | –
44 | COc1ccc(/C=C/c2nnc(NC(=O)COc3cccc(C)c3)s2)cc1 | active: 4.47 µM | –
45 | Cc1ccc(OCCSc2ncccn2)c(C)c1 | inconclusive: 2 µM [activator, full curve, poor fit] | –
46 | NC(=O)CC(NC(=O)c1ccccc1)c1ccc(N2CCC(Br)CC2)c([N+](=O)[O-])c1 (stereo not given) | – | inactive: -14%
47 | Cc1ccc(NC(=O)c2ccc(OCC3CCCO3)cc2)cc1Cl (stereo not given) | inconclusive: 1.78 µM [activator, full curve, poor fit] | –
48 | O=C(Nc1ccc([N+](=O)[O-])cc1)Nc1ccon1 | – | inactive: -29.8%
49 | COc1ccc(OCCCSc2ncccn2)cc1 | active: 12.6 µM | –
50 | Cc1cccc(OCc2nc3ccccc3c(=O)n2N)c1 | inconclusive: 11.2 µM [activator, partial curve, poor fit] | –

Row | SMILES | Potency | activation
51 | COc1ccc(OC)c(CN2CCCC(C(=O)c3ccccc3SC)C2)c1 (stereo not given) | – | inactive: -42.9%
52 | CCCCN1CCc2c([nH]c3ccc(C)cc23)C1=O | inconclusive: 2.82 µM [activator, full curve, poor fit] | –
53 | Cc1ccc(C)c(C(=O)CCC(=O)NCc2ccc(Cl)cc2)c1 | – | inactive: 14.8%
54 | COc1ccc(CCNC(=O)Nc2ccccc2[N+](=O)[O-])cc1 | inconclusive: 2.51 µM [activator, full curve, poor fit] | –
55 | NC(=O)c1cc2ccc(O)cc2oc1=Nc1ccccc1 | inconclusive: 1.78 µM [activator, partial curve, poor fit] | –
56 | O=C(c1ccc(Cl)c(S(=O)(=O)N2CCCCC2)c1)N1CCCCC1 | – | inactive: 1.03%
57 | Cc1cccc(N(CC(=O)NCCSCc2cccc(Cl)c2)S(=O)(=O)c2ccccc2)c1C | – | inactive: -59.7%
58 | Cc1cc(C)cc(N(CC(=O)NC2CCCC2)S(=O)(=O)c2c(C)[nH]c(=O)[nH]c2=O)c1 | – | inactive: 6.51%
59 | CC(C)N(C(=O)COC(=O)c1ccc(Cl)c(S(N)(=O)=O)c1)C(C)C | – | inactive: 5.69%
60 | Cc1ccnc2c1ccc1c(C)ccnc12 | – | inactive: -80%
61 | CCCC(=O)c1ccc(N2CCC(C)CC2)c(F)c1 | inconclusive: 14.1 µM [activator, single point] | –
62 | Oc1ccc(/C=N/Nc2cccc(Cl)n2)c(O)c1 | inconclusive: 7.08 µM [activator, partial curve, poor fit] | –
63 | COc1cc(/C=C2/N=C(C3CCCCC3)OC2=O)cc(OC)c1OC | – | inactive: 2.14%
64 | Cc1cc(=O)oc2cc(NC(=O)c3cccc(S(=O)(=O)N(C)C)c3)ccc12 | inconclusive: 2.51 µM [activator, full curve, poor fit] | –
65 | CCOc1ccc2oc(C(=O)Nc3cc(C)ccn3)c(C)c2c1 | inconclusive: 0.631 µM [activator, full curve, poor fit] | –
66 | COc1cc(OC)c(C(=O)NNC(=O)c2ccccc2-n2cccc2)cc1OC | – | inactive: -4.17%
67 | Cc1ccc(C(=O)NC2CCc3ccccc3C2=O)cc1 (stereo not given) | inconclusive: 2.24 µM [activator, full curve, poor fit] | –
68 | Cc1cccc(NC(=O)CC2CCC2)c1 | inconclusive: 35.5 µM [activator, single point] | –
69 | CC(=O)c1ccccc1NC(=O)COC(=O)c1c(C)nn(-c2ccccc2)c1C | inconclusive: 28.2 µM [activator, single point] | –
70 | O=C(N/N=C/c1ccco1)c1ccccn1 | inconclusive: 11.2 µM [activator, partial curve, poor fit] | –
71 | COc1ccc2[nH]cc(/C=C/C(=O)c3ccccc3)c2c1 | inconclusive: 1.26 µM [activator, full curve, poor fit] | –
72 | O=C(c1ccco1)N(CCCN1CCOCC1)c1nc(-c2ccc(Cl)cc2)cs1 | – | inactive: -51.5%
73 | COc1ccccc1Cc1c(-c2ccc(C)cc2)nc2ccc(Br)cn12 | inconclusive: 1.78 µM [activator, partial curve, poor fit] | –
74 | O=C(OCC(=O)N1CCCCCC1)c1ccccc1Br | inconclusive: 2.82 µM [activator, full curve, poor fit] | –
75 | COc1ccc(C(=O)NC(=S)NC(C)(C)C)cc1Br | active: 11.2 µM | –
